In PubChem BioAssay AID504845 (National Center for Advancing Translational Sciences (NCATS), 2011):
The whole screen tested about 390,000 compounds, of which about 150 (0.038%) were called active. The inconclusive results got no clear call from the source; some entries with a clear call stand among them for comparison. The call rests on the fitted dose curve; in most records, active means well fitted inhibition curve with a large enough effect; inconclusive means small, poorly fitted or top-dose-only effect; inactive means no such curve, though single readings can be large or run the other way. Potencies of inconclusive entries are doubtful fits and often do not repeat.
Further: nearly all actives have a fitted effect of over 75% in size.
Potency means the concentration at half of the fitted maximal effect; tags describe the fitted curve by direction and shape.

Each molecule was assayed against Regulator of G-protein signaling 4 (Homo sapiens) (UniProt P49798) (assay: Inhibitors of Regulator of G Protein Signaling (RGS) 4: qHTS). Conditions: Transcreener GDP fluorescence polarization, RGS4-accelerated GTP hydrolysis; series mostly up to 114 µM.
Chain of UniProt P49798 (P49798 whole entry, looked up): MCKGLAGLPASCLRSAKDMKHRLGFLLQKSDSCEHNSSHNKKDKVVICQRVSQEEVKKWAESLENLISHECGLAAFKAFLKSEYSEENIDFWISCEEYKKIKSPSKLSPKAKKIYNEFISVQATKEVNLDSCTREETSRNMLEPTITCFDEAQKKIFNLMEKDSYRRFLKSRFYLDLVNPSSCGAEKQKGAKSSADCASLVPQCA
Method in brief: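 MLSMR compounds (23 nl, pin-transferred) preincubated 10 min at room temperature with a 500nM (2x) first reagent, then RGS4 at 900nM (2x) plus Transcreener GDP mix added; fluorescence polarization (620/688 nm) read before and after 90 min at 30 °C.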
With `CS(=O)(=O)N(CC(=O)NCCSCc1cccc(Cl)c1)c1ccc(F)cc1` the Potency was inconclusive: 100 µM [inhibitor, single point]. For `CN(CC(=O)NCCc1ccc(S(N)(=O)=O)cc1)CC(=O)Nc1ccccc1Cl`, the Potency was inconclusive: 100 µM [inhibitor, single point]. In the case of `CCC(=O)Nc1ccc2oc(-c3ccccc3Br)nc2c1`, the Potency is reported as inconclusive: 70.8 µM [inhibitor, partial curve, poor fit]. With `O=C(NCc1cccnc1)/C(=C\c1ccc(-c2ccc(Cl)c(Cl)c2)o1)S(=O)(=O)c1ccccc1` the Potency was inconclusive: 50.1 µM [inhibitor, partial curve, poor fit]. In the case of `O=C(CCN1C(=O)/C(=C/c2ccco2)SC1=S)Nc1ccc(O)cc1C(=O)O`, the Potency is reported as inconclusive: 25.1 µM [inhibitor, full curve, poor fit]. In the case of `CC(C)(C)OC(=O)CC1(C#N)c2ccccc2C(Br)=CN1C(=O)c1ccccc1` (configuration not stated), the Potency is reported as “inactive”. In the case of `COc1cc2c(-c3ccc(O)cc3)nc3c(c(C)nn3-c3ccccc3)c2cc1OC`, the Potency is reported as inconclusive: 79.4 µM [inhibitor, single point]. `CCCc1ccc(OCC(=O)Nc2sc3c(c2C(=O)OC)CCCCC3)cc1` was tested, and the Potency was inconclusive: 50.1 µM [inhibitor, partial curve, poor fit]. With `CC12CCC(C(=O)N(CCCCN3CCN(c4ccccn4)CC3)C1=O)C2(C)C` (configuration not stated) the Potency was “inactive”. In the case of `CCOC(=O)c1cc2c(=O)n3ccccc3nc2n(CC(C)C)c1=NC(=O)c1ccco1`, the Potency is reported as “inactive”. With `O=C(O)C(SC(C(=O)O)c1ccccc1)c1ccccc1` (configuration not stated) the Potency was inconclusive: 79.4 µM [inhibitor, single point]. With `COCCN(C(=O)COC(=O)/C=C/c1ccc(SC)cc1)c1c(N)n(Cc2ccccc2)c(=O)[nH]c1=O` the Potency was “inactive”. For `S=P(N1CC1)(N1CC1)N1CC1`, the Potency was inconclusive: 89.1 µM [inhibitor, partial curve, poor fit]. With `COc1ccc(NC(=O)C(C)n2nnc3sc(-c4ccccc4)cc3c2=O)cc1Cl` (configuration not stated) the Potency was inconclusive: 10 µM [inhibitor, full curve, poor fit]. For `O=C1COc2ccc(C(=O)CSc3nnc(Cc4ccccc4)o3)cc2N1`, the Potency was inconclusive: 100 µM [inhibitor, single point]. For `COc1ccc(-c2cc(C)no2)cc1S(=O)(=O)N1CCCN(Cc2ccc(F)cc2)C1`, the Potency was “inactive”. `CCNS(=O)(=O)c1ccc(OC)c(C)c1` was tested, and the Potency was “inactive”. In the case of `O=C(NCC(=O)N(c1ccc(F)cc1)C(C(=O)NC1CCCCC1)c1cccnc1)c1ccco1` (configuration not stated), the Potency is reported as “inactive”. In the case of `Cc1cc(=O)n(Cc2ccccc2)c2ccccc12`, the Potency is reported as inconclusive: 79.4 µM [inhibitor, partial curve, poor fit]. In the case of `O=C(O)c1cc(-c2ccco2)nc2ccc(Br)cc12`, the Potency is reported as inconclusive: 44.7 µM [inhibitor, partial curve, poor fit]. For `CNC(=S)NNC(=O)c1ccc(=O)n(Cc2cccc(C(F)(F)F)c2)c1`, the Potency was inconclusive: 50.1 µM [inhibitor, partial curve, poor fit]. With `Cc1cc(C)cc(-n2nnc(-c3nsc(NC(=O)c4ccccc4Cl)n3)c2C)c1` the Potency was inconclusive: 50.1 µM [inhibitor, partial curve, poor fit]. In the case of `COc1ccc(CN(C(=O)c2oc3ccc(F)cc3c2C)C2CCS(=O)(=O)C2)cc1` (configuration not stated), the Potency is reported as inconclusive: 89.1 µM [inhibitor, single point]. With `O=C(Nc1ccc2nc(-c3ccco3)c(-c3ccco3)nc2c1)N1CCCCCC1` the Potency was inconclusive: 50.1 µM [inhibitor, partial curve, poor fit]. For `O=C(COC(=O)c1cccc(Cl)c1Cl)NC1CCCC1`, the Potency was “inactive”. In the case of `COC(=O)C1=C(C)NC(=O)NC1c1ccccc1` (configuration not stated), the Potency is reported as “inactive”. For `Nc1nc2c(c(=O)[nH]1)C(c1cccc3ccccc13)C1=C(N2)c2ccccc2C1=O` (configuration not stated), the Potency was inconclusive: 50.1 µM [inhibitor, partial curve, poor fit]. For `CCN(Cc1ccc2c(c1)OCCO2)C(=O)CN1C(=O)NC2(CCCCC2)C1=O`, the Potency was inconclusive: 89.1 µM [inhibitor, single point]. For `CCOC(=O)c1c(C)c(C(=O)Nc2ccc(N(C)C)cc2)c(C)n1CC`, the Potency was “inactive”. In the case of `COc1cc(/C=C2\SC(=Nc3ccc(Cl)c(C(=O)O)c3)NC2=O)c(Br)c(Br)c1O`, the Potency is reported as inconclusive: 89.1 µM [inhibitor, single point]. With `CN(C)c1ccc(/C=N/Nc2ccc(-n3ccnc3)nn2)cc1` the Potency was inconclusive: 50.1 µM [inhibitor, partial curve, poor fit]. With `Cc1ccccc1[C@@]1(C)ON(c2ccccc2C(F)(F)F)C1=O` the Potency was inconclusive: 50.1 µM [inhibitor, partial curve, poor fit]. For `C=C(C)[C@@H]1CCC2(C(=O)O)CC[C@]3(C)[C@H](CC[C@@H]4[C@@]5(C)CCC(=O)C(C)(C)[C@@H]5CC[C@]43C)[C@@H]12` (some centres not stated), the Potency was “inactive”. In the case of `CCSc1nc(-c2ccc(Cl)cc2)nc2c1Cc1c(CO)cnc(C)c1O2`, the Potency is reported as “inactive”. `O=C(CCCCCCN1C(=O)c2ccccc2C1=O)Nc1nccs1` was tested, and the Potency was inconclusive: 100 µM [inhibitor, single point]. `C(=N\c1nc2ccccc2[nH]1)/c1cccs1` was tested, and the Potency was “inactive”. For `COc1cc(/C=C2\C(=N)N3N=CSC3=NC2=O)cc(Br)c1OC(=O)c1ccco1`, the Potency was inconclusive: 79.4 µM [inhibitor, partial curve, poor fit]. `O=C(NCc1ccc(Cl)cc1)c1n[nH]c([N+](=O)[O-])c1Cl` was tested, and the Potency was inconclusive: 44.7 µM [inhibitor, partial curve, poor fit]. For `O=[N+]([O-])c1ccc(N2CCN(c3ccc(O)cc3)CC2)c(Cl)c1`, the Potency was inconclusive: 100 µM [inhibitor, partial curve, poor fit]. For `CCn1c(-c2ccc(C(C)(C)C)cc2)n[nH]c1=S`, the Potency was inconclusive: 89.1 µM [inhibitor, single point]. With `Cc1ccc(-n2nnnc2CNC(=O)c2ccccc2F)cc1C` the Potency was “inactive”. In the case of `COCCCNS(=O)(=O)c1ccc2c(c1)CCN2C(C)=O`, the Potency is reported as inconclusive: 50.1 µM [inhibitor, partial curve, poor fit].
